# Data as given in the supplement of paper PMC7826260.
# This is one part of the list. Each Rep nickase domain was tested in vitro on the same pool of single strands (3 µM enzyme, 1 h, 37 °C); shown is the middle of each 90-letter strand. A value is the log2 ratio of uncut reads to the pool without enzyme; strong cutting gives strongly negative numbers. There is no active / inactive call. The scaling is to total reads, so uncut sequences can rise above 0 when many others are cut.
# Test system: T1, Rep nickase domain of tomato golden mosaic virus
# T1 sequence (Rep 1-124, printed without the tag): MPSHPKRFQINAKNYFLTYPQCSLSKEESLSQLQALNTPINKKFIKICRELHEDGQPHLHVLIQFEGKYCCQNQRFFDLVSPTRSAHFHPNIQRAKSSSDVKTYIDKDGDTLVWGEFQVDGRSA
# Assay: uncleaved DNA left, log2 of reads against the no-enzyme library (log2 ratio); higher = less cleavage (more negative = more Rep cleavage of the k-mer); sequences stand for … in CTCGTCCG…ACCGGAGA
# Experimental: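 A pool of 90-nt single-stranded DNAs with seven random bases just before the constant AC of the nick site (name = the seven bases) was cut by 3 µM recombinant His6-SUMO-tagged Rep nickase domain (300 nM DNA, 50 mM HEPES pH 8.0, 50 mM NaCl, 1 mM MnCl2, 1 h, 37 °C, three replicates). Uncut DNA was amplified and sequenced.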
row,Sequence,uncleaved DNA left (log2)
1,TGCAGAG,0.0451
2,CGGAAGA,0.013
3,CTGAAAT,-0.111
4,AGATTAG,0.0754
5,GTGCATT,-0.0791
6,ATCCAGG,-0.0212
7,TACATCG,-0.0333
8,ACACGGA,0.105
9,TACGGTT,-0.0415
10,TGGGGTC,0.00455
11,TTTTCCA,-0.128
12,TGGGACC,-0.0255
13,TAGTGAT,-0.0295
14,GAGGGCA,0.0436
15,ATGCAAT,0.11
16,CTAGTAA,-0.132
17,ACCAAAT,-0.0776
18,AGTACCT,-0.104
19,CCGTTCT,-0.0839
20,AGTGGTA,0.0979

row,Sequence,uncleaved DNA left (log2)
1,TATTGAG,-0.0259
2,GCGTTCG,0.119
3,CCTCAGG,0.209
4,TGGTCAT,-0.0397
5,CACTGCA,-0.114
6,GTAGGAA,0.249
7,AATGTGC,-0.154
8,GCATCTA,0.0536
9,GACTGGC,-0.103
10,TGCCGCT,-0.263
11,GAATAGC,-0.11
12,AGTTCCA,-0.0524
13,CCATCAC,0.0393
14,GGTGTTC,-0.128
15,TAGCGCA,0.00903
16,GAATGTT,-2.78
17,CGACGAG,-0.0646
18,CAACATT,-0.332
19,TCTCGGA,0.131
20,GGGCTCT,0.1
